# Experimental data published in PMC4336329 (PLoS ONE, 2015).
# About 14,000 (4.5%) of roughly 310,000 compounds showed an effect of 50% or more. Effects have a minus sign here. The list shows a part of the results.
# Molecular target: human ether-à-go-go-related gene (hERG) potassium channel (human, UniProt Q12809)
# Experiment: primary screen, population patch clamp on CHO cells stably expressing hERG
# 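Also: peak tail current of the secondary pulse compared with the same well before compound.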
# Chain of human ether-à-go-go-related gene (hERG) potassium channel (Q12809 whole entry, looked up): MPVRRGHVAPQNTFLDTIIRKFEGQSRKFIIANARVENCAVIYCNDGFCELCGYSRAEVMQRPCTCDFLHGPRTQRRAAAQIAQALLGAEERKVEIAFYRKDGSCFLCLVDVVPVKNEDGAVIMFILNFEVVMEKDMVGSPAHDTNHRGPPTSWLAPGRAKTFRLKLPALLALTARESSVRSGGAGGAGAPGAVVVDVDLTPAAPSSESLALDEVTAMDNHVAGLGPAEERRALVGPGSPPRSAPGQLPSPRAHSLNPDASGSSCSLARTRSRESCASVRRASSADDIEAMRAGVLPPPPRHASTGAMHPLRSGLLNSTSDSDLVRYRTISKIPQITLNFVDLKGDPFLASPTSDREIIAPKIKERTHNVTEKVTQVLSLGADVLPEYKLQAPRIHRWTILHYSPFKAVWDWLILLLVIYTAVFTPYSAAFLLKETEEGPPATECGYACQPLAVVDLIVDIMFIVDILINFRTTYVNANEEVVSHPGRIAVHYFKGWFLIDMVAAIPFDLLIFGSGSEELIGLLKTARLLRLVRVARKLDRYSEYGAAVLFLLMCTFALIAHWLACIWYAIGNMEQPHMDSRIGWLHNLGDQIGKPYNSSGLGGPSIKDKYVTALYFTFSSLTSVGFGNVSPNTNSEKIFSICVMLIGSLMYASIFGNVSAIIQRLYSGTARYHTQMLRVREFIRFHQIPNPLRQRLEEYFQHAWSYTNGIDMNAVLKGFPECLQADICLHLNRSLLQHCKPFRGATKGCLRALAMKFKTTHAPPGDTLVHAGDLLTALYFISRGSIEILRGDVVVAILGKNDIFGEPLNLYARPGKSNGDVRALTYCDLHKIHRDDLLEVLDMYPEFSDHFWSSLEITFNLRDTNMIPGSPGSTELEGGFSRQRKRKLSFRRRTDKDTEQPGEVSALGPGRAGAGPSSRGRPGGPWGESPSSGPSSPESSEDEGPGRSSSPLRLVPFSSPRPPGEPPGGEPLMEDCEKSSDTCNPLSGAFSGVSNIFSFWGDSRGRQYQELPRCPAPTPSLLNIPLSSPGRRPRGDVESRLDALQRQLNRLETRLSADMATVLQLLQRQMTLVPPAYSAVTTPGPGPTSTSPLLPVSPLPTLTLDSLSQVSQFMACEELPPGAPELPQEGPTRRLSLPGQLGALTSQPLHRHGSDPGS
row,Compound,"hERG current change (%, negative = inhibition) at 10uM"
1,COc1ccc(/C=N/NC(=S)Nc2ccccc2)cc1,24.3%
2,COc1ccc(CCN=C(N)NS(=O)(=O)c2ccc(OC)c(OC)c2)cc1OC,1.58%
3,C=CCNC(=S)NNC(=O)Cn1c(-c2ccccc2)cc(=O)n2ncnc12,18.5%
4,O=C(c1cccc([N+](=O)[O-])c1)c1ccc2[nH]c(=O)[nH]c2c1,17.8%
5,O=S(=O)(/N=C(/NC(=S)Nc1ccccc1)c1ccccc1)c1ccc(Cl)cc1,18.9%
6,COc1ccc(NC2C=CS(=O)(=O)C2)c(OC)c1 (centres unmarked),-2.02%
7,O=P(O)(c1ccccc1)c1ccccc1O,-7.16%
8,CCCC(=O)Nc1ccccc1NC(=O)c1ccc2c(c1)OCO2,12.4%
9,COCCNC(=S)N(CCc1c(C)[nH]c2ccc(F)cc12)Cc1cccs1,8.34%
10,c1ccc(Cn2c(Sc3nnnn3-c3ccccc3)nnc2-c2ccccc2)cc1,-19.6%
11,O=C(Nc1cc(=O)[nH]c2nc(-c3ccc(Cl)cc3)nn12)c1ccccc1,9.56%
12,CCOc1ccc(C(=O)c2nc3c(n2O)CCCC3)cc1,18.5%
13,COc1ccc(-c2n[nH]c(=S)n2C2CCCCC2)cc1,20.2%
14,COc1ccccc1CNC(=O)C(Cc1c[nH]c2ccccc12)NC(=O)OCc1ccccc1 (centres unmarked),-9.86%
15,CCOc1c(Cl)cc(/C=C/C(=O)N(CC)CC(=O)NCc2cccs2)cc1OC,-55.4%
16,CCOC(=O)c1ccc(Nc2sc(C(=O)c3cccc([N+](=O)[O-])c3)c(N)c2C#N)cc1,14.7%
17,CCN1CCN(C(=O)Nc2ccccc2OC)CC1.O=C(O)C(=O)O,11%
18,CC(C)(C)C(O)CN1CCCC1.Cl (centres unmarked),-5.14%
19,O=Cc1ccc(N2CCCCC2)cc1,6.5%

row,Compound,"hERG current change (%, negative = inhibition) at 10uM"
1,CCNC(=S)N(CCCN(CC)CC)Cc1cc2cc3c(cc2[nH]c1=O)OCO3,1.75%
2,CCOC(=O)C1CCN(C(=O)CCc2nnc3ccc(N4CCC(C)CC4)nn23)CC1,-31%
3,O=C(NCCN1CCN(S(=O)(=O)c2ccccc2)CC1)C(=O)Nc1ccc(F)cc1,4.82%
4,Cn1c(NC(=O)c2ccc(S(=O)(=O)N3CCOCC3)cc2)cc(=O)n(C)c1=O,21.1%
5,FC(F)Oc1cccc2cccnc12,8.31%
6,c1ccc(Nc2nc(-c3ccccc3)nc3ccccc23)cc1,13.3%
7,COc1ccc(N2CCN(C(=O)Cc3ccc(OC)c(OC)c3)CC2)cc1,6.38%
8,COc1ccc(C2/C(=C(\O)c3cccc(OC)c3)C(=O)C(=O)N2c2ccccn2)cc1 (centres unmarked),0.0512%
9,Cc1oc(-c2cccs2)nc1CN1CCC(C(=O)N2CCCC2)CC1,-11.2%
10,CCOC(=O)c1c(-c2ccccc2)oc2ccc(OCC(=O)NNC(=O)CCC(=O)O)cc12,17.6%
11,O=C(CSc1ncnc2nc[nH]c12)c1ccc2ccccc2c1,13.1%
12,COC(=O)c1cc(C(=O)OCC(=O)NC2CCCCCCC2)cc([N+](=O)[O-])c1,-7.58%
13,CC1CCCCN1C(=S)NC(=O)c1cccs1 (centres unmarked),8.08%
14,Cc1c(NC(=O)c2ccc(-c3cccc([N+](=O)[O-])c3)o2)c(=O)n(-c2ccccc2)n1C,-3.64%
15,Nc1sc(-c2ccccc2)cc1C(=O)N/N=C/c1ccc(Cl)cc1,18.1%
16,CC1(C)Cc2c(sc3c2C(=O)NC(c2cccnc2)N3)CO1 (centres unmarked),1.61%
17,CC(C)Oc1ccc(C(=O)Nc2ncn[nH]2)cc1,7.72%
18,COCCN1C(=O)C(=O)/C(=C(/O)c2ccc(S(=O)(=O)N3CCOCC3)cc2)C1c1cccc([N+](=O)[O-])c1 (centres unmarked),14.4%
19,CCc1cccc(C)c1NC(=S)NCC(c1cccnc1)N(C)C (centres unmarked),5.1%

row,Compound,"hERG current change (%, negative = inhibition) at 10uM"
1,COc1ccc(C(=O)c2c[nH]c(C(=O)NCC3CCCO3)c2)cc1 (centres unmarked),6.77%
2,Cc1ccccc1CSc1nnc(-c2ccccn2)n1C,-1.96%
3,Cc1ccc(-n2c(SCC(=O)NCc3cccs3)nnc2-c2ccoc2C)cc1,-74.8%
4,COc1ccc(-c2cc3c(=O)n(CC(=O)N4CCCCC4)ncn3n2)cc1,17.1%
5,COc1ccc2c(c1)C(c1ccc([N+](=O)[O-])cc1)=NNC(c1ccco1)=N2,-60%
6,CC(C)n1c(CN2CCN(C)CC2)nc2c1c(=O)n(C)c(=O)n2C,8.55%
7,O=C(N/C(=C\c1cccnc1)c1nc2ccccc2[nH]1)c1cccc(Br)c1,-54.9%
8,Cc1ccc(NC2CCCN(C(=O)CCc3cn[nH]c3)C2)cc1C (centres unmarked),-8.47%
9,C[n+]1cccc(/C=N/NC(=O)CC23CC4CC(CC(C4)C2)C3)c1.[I-],11.4%
10,O=c1cc(CSc2nc(NCc3ccccc3)c3ccccc3n2)nc2ccc(Cl)cn12,-59.3%
11,CCCCN1C(=O)C(NC(C)=O)c2cc(Br)ccc21 (centres unmarked),-10.1%
12,Cc1ccc(CNC(=O)CSc2ccc(-c3ccccn3)nn2)cc1,-15.7%
13,CC(=O)c1ccc(N2CCN(C(=O)C3CCN(S(=O)(=O)c4ccc5c(c4)CC(C)N5C(=O)C4CC4)CC3)CC2)cc1 (centres unmarked),-8.83%
14,CCN1C(=O)N(CC)C(O)(c2ccccc2)C1(O)c1ccccc1 (centres unmarked),2.69%
15,O=C(NCc1ccccn1)C1COc2ccccc2O1 (centres unmarked),5.93%
16,O=C(CCl)Nc1ccccc1C(=O)NCc1ccccc1,9.93%
17,O=C(Nc1ccc(Br)cc1F)c1sccc1-n1cccc1,1.19%
18,Cc1sc2ncnc(SCC(=O)N3CCCC(C(F)(F)F)C3)c2c1C (centres unmarked),-4.47%
